Reference: PubChem BioAssay AID1030 (National Center for Advancing Translational Sciences (NCATS), 2008)
Among all 220,000 compounds or so, about 16,000 (7.3%) were called active. The shares of active, inactive and inconclusive entries below differ from those in the screen. Calls come from the whole dose curve; as a rule, active = well fitted inhibition curve with a large enough effect (not every such curve was filed as active); inconclusive = small, poorly fitted or top-dose-only effect, or another doubt; inactive = no such curve, though single readings can be large or run the other way. A potency beside an inconclusive call is a rough fit, not a confirmed value.

biological target: Aldehyde dehydrogenase 1A1 (Homo sapiens) (UniProt P00352); experiment: qHTS Assay for Inhibitors of Aldehyde Dehydrogenase 1 (ALDH1A1); settings: Purified ALDH1A1, NADH fluorescence, propionaldehyde substrate; series mostly up to 75.3 µM; activity, negative = inhibition: at the top concentration;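 for activity, negative = inhibition: plate controls were no enzyme wells and a reference inhibitor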
Sequence of UniProt P00352 (P00352 whole entry, looked up): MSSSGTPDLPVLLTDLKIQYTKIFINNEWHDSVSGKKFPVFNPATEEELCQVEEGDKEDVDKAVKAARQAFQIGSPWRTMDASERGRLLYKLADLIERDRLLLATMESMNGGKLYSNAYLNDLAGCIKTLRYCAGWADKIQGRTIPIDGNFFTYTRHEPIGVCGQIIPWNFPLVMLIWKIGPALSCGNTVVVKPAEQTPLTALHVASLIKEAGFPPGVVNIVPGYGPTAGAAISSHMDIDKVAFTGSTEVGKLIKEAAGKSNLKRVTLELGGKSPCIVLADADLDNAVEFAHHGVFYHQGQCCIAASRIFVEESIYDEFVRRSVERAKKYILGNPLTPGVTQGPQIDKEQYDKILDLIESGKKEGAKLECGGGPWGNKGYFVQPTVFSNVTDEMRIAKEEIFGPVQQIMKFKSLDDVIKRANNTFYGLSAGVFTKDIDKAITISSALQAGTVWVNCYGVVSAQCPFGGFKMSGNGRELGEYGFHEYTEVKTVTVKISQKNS
Potency is the fitted concentration of half-maximal effect; tags give direction and shape of the fitted curve.

Potency, inactive:
COC(=O)[C@@]1(Cc2ccc(F)cc2)[C@H]2c3cc(C(=O)N4CCCC4)n(CCc4ccc(O)c(O)c4)c3C[C@H]2CN1C(=O)c1ccccc1

Potency, inconclusive:
CCN(CC)CCCN(Cc1cc2cc3c(cc2[nH]c1=O)OCCO3)C(=O)Nc1ccc(F)cc1 8.91 µM [inhibitor, single point], CC(C)(C)OC(=O)N1CCN(c2ccc([N+](=O)[O-])cc2)CC1 28.2 µM [inhibitor, single point], CCOC(=O)C1=C(C)N=c2s/c(=C\c3ccc(OC(C)=O)cc3)c(=O)n2C1/C=C/c1ccccc1 (stereo not given) 39.8 µM [inhibitor, single point], COc1ccc(N2C(=O)CC(N3CCC(c4nc5ccccc5[nH]4)CC3)C2=O)cc1 (stereo not given) 31.6 µM [inhibitor, single point], Nc1nc(-c2ccc(Cl)cc2)cc(C(F)(F)F)n1 8.91 µM [inhibitor, single point], COCCN(C(=O)C(C)C)c1nnc(-c2cccc(C)c2)s1 7.94 µM [inhibitor, partial curve], O=C(CSc1ncnc2c1cnn2-c1ccccc1Cl)N1CCN(C(=O)c2ccco2)CC1 25.1 µM [inhibitor, single point], CCOc1ccc2c(C)c(Cl)c(=O)oc2c1 22.4 µM [inhibitor, partial curve], COc1ccc(C(=O)Nc2nc3c(s2)CCCC3)cc1S(=O)(=O)N1CCCc2ccccc21 35.5 µM [inhibitor, partial curve], O=C(C[n+]1ccc(C(=O)N/N=C/c2ccc(OCc3ccccc3)cc2)cc1)c1ccccc1 1.78 µM [inhibitor, partial curve], CSC1=C(C#N)C2(CCCC2)C(C#N)=C(N)N1 39.8 µM [inhibitor, single point], COc1ccc(/C=N/NC(=O)c2cccc(NC(=O)c3ccc(Cl)cc3)c2)c(OC)c1 37.7 µM [inhibitor, single point], Cc1cc(OCC(=O)N(C)C2CCCCC2)cc(C)c1Cl 39.8 µM [inhibitor, single point], Cc1ccccc1-n1nc(-c2cccnc2)cc1C(=O)NN 20 µM [inhibitor, partial curve], COc1ccc(OC)c(N(CC(=O)Nc2ccccc2C(=O)NCc2ccco2)S(C)(=O)=O)c1 37.7 µM [inhibitor, single point], COc1ccc(-c2n[nH]c(=S)n2Cc2ccco2)cc1 25.1 µM [inhibitor, single point], C/C=C/OC(=O)NC(c1ccccc1)[C@@]1(C(=O)OCC)CCCC1=O (stereo not given in full) 3.16 µM [inhibitor, single point], O=c1c(-c2nnc(SCc3ccc(Cl)cc3Cl)o2)cccn1Cc1ccccc1 22.4 µM [inhibitor, partial curve], COc1ccc(CNC(=O)c2cc3c(=O)n4ccccc4nc3n(CC3CCCO3)c2=N)cc1 (stereo not given) 28.2 µM [inhibitor, partial curve], O=C(C1CC1)N1CCc2cc(Br)cc(S(=O)(=O)NC3CCCCC3)c21 14.1 µM [inhibitor, partial curve], O=S(=O)(NCc1cc(-c2ccccc2)no1)c1ccccc1Cl 22.4 µM [inhibitor, partial curve], O=C(NCCc1ccc(Cl)cc1)C1CCN(S(=O)(=O)c2ccc(Br)s2)CC1 3.98 µM [inhibitor, full curve, poor fit], COCCn1c(C)cc(C(=O)CSc2nc(C)cc(C)c2C#N)c1C 39.8 µM [inhibitor, single point], O=C(Nc1nnc(SCc2ccc(F)cc2)s1)c1ccc2ncsc2c1 39.8 µM [inhibitor, single point], O=C(c1cccn2c(=O)c3cc(Cl)ccc3nc12)N1CCN(Cc2ccc3c(c2)OCO3)CC1 25.1 µM [inhibitor, partial curve], O=CN1Cc2[nH]c3ccccc3c2N(c2ccc(Cl)cc2)C1=O 39.8 µM [inhibitor, single point], c1ccc(-n2ncc3c2ncn2nc(CSc4nc5ccccc5s4)nc32)cc1 7.08 µM [inhibitor, single point], FC(F)(F)c1ccccc1C1C2=C(Nc3ncnn31)c1ccccc1CCC2 (stereo not given) 39.8 µM [inhibitor, single point], Cc1ccc(NC(=O)CN2CCc3ccccc3C2)cc1S(=O)(=O)N(C)C 31.6 µM [inhibitor, partial curve], O=C(O)COc1cccc(-c2ocnc2-c2nc(-c3ccccc3)c(-c3ccccc3)o2)c1 28.2 µM [inhibitor, partial curve], C/C(=C\C(=O)c1cccnc1)Nc1ccc(C(=O)O)cc1 39.8 µM [inhibitor, single point], O=C(CCn1c(=O)sc2ccccc21)NCc1ccc2c(c1)OCO2 39.8 µM [inhibitor, single point], COCCNC(=S)NC12CC3CC(CC(C3)C1)C2 28.2 µM [inhibitor, partial curve], COc1cccc(Nc2ncc3nc(-c4ccc(Cl)cc4)c(=O)n(C4CC4)c3n2)c1 39.8 µM [inhibitor, single point], CCOC(=O)N1CCN(CCC(=O)Nc2ccccc2OC)CC1 37.7 µM [inhibitor, single point], CCOC(=O)c1[nH]c2ccc(OC)cc2c1NC(=S)N1CCN(c2ccccc2OC)CC1 22.4 µM [inhibitor, partial curve], C/C(=N/NC(=O)c1ccc(O)cc1)c1cccc([N+](=O)[O-])c1 39.8 µM [inhibitor, single point], CCCCCCCn1c2c(c(=N)c3ccccc31)CCC2 39.8 µM [inhibitor, single point]

Potency, active:
O=C1NC(=S)N/C1=C/c1cccc([N+](=O)[O-])c1O 22.4 µM, C=CCn1c(SC(C)C#N)nc2sc(CC)cc2c1=O (stereo not given) 2 µM, CCCSc1nnc(Sc2nnnn2-c2ccccc2)s1 11.2 µM, O=C(NCCCN1CCCC1=O)c1ccc2c(=O)n(-c3ccc(F)cc3)c(=S)[nH]c2c1 14.1 µM, COC(=O)C1=C(C)NC(=O)NC1c1ccc(-c2ccc(Cl)cc2)o1 (stereo not given) 11.2 µM, N#C/C(=N\Nc1ccc(F)cc1)C(=N)N1CCCCC1 28.2 µM, COc1ccccc1OCC(=O)NNC(=S)NC(=O)c1ccco1 28.2 µM, COc1cc(NC(=S)NC(=O)c2ccccc2C)ccc1NC(=O)c1cccs1 25.1 µM, Cc1ccc(C)c(/C(O)=C2/C(=O)C(=O)N(CCN3CCOCC3)C2c2ccco2)c1 (stereo not given) 10 µM, CCCCn1c(=O)c(-[n+]2ccccc2)c([O-])c2ccccc21 14.1 µM, C/C(=N\N1C(=O)CSC1=S)c1ccc(Br)cc1 25.1 µM, Cc1nnc(SCC(=O)NCc2ccco2)n1-c1ccc(F)cc1 25.1 µM, COc1ccc(C(=O)/C=C\N2CCOCC2)cc1 8.91 µM, CC(C)OC(=O)CC12CN3CN(C1)CC(CC(=O)OC(C)C)(C3)C2=O 2.51 µM

activity, negative = inhibition, inactive:
[O-][n+]1onc2c1CCc1nnccc1-2 5.97%, Cc1ccc(-n2nc(C)c3onc(C)c3c2=O)cc1 -0.802%, Cn1nc(CC(=O)N2CCN(c3ccccc3)CC2)c2ccccc2c1=O -3.08%, C#C[C@@]1(O)CC[C@@H]2[C@@H]3CCC4=CC(=O)CC[C@@H]4[C@H]3CC[C@]21CC -8.97% [at 20.9 µM], O=C(Nc1ccc(O)c(-c2nc3ccccc3o2)c1)C1(c2ccccc2)CCCC1 -0.321%, COc1ccc(-c2nn(-c3ccccc3)cc2CN2CCCO2)c(F)c1 -7.57%, COc1ccc(CCNC(=O)c2cc(S(=O)(=O)N(C)c3ccccc3)ccc2Cl)cc1 -3.14%, Cc1ccccc1C(=O)NCCc1nnc(SCC(=O)Nc2nc(-c3ccccc3)cs2)n1C -1.61%, O=C(NC1CC1)C1CCCN(C(=O)NC2CCCCC2)C1 (stereo not given) 2.75%, Cc1ccc(C(=O)OCCc2c(C)[nH]n(-c3ccccc3)c2=O)cc1 6.34%, O=C(/C=C/c1cccc(Oc2ccccc2)c1)N1CCOCC1 4.9%, CCOc1cc(C(=S)N2CCOCC2)ccc1OC(=O)/C=C/c1ccc(OC)c(OC)c1 -11.7%, COc1cccc(NS(=O)(=O)c2cc(C)sc2C)c1 -8.3%, S=C(Nc1ccccc1)Nc1ccc(OCc2ccccc2)cc1 2.47%, COc1cc(C(=O)OCC(=O)c2c(N)n(C)c(=O)n(C)c2=O)ccc1OCCC(C)C 2.93%, O=[N+]([O-])c1ccc(N2CCN(CCO)CC2)cc1Sc1nc2ccccc2[nH]1 -7.92%, CC(C)Sc1nc2sc(-c3ccccc3)cc2c(=O)n1N -11.5%, COCCNC(=O)c1ccc(Cn2c(=S)[nH]c3cc4c(cc3c2=O)OCO4)cc1 -0.84%, CC(=O)N=c1sc(C(C)(C)C)c(C)n1C 3.1%, COCc1cc(C)nc2sc(C(=O)OC)c(N)c12 -9.45%, COc1ccc(NC(=O)CSc2nnc3n2CCCCC3)cc1 1.86%, O=C(N/N=C/c1cccnc1)C(O)(c1ccccc1)c1ccccc1 -7.3%
